In PMC2808332 one finds binding data, which are given here for five substances.

The chains behind the UniProt entries cited, without tags or fusion partners.
UniProt Q9UBF6: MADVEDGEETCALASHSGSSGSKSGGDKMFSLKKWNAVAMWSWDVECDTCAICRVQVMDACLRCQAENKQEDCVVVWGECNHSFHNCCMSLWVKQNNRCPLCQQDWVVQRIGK
UniProt P21579: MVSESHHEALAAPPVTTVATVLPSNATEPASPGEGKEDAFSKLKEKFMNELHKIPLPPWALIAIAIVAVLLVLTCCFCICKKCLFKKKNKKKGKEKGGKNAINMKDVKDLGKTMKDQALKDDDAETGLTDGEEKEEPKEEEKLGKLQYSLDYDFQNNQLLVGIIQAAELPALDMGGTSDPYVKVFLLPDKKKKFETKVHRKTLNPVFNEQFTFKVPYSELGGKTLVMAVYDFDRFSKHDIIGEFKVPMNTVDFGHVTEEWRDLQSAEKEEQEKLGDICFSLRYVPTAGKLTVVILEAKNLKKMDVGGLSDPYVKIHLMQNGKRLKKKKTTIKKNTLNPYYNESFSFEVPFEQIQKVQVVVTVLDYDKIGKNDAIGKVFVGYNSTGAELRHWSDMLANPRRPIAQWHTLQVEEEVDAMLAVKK

Assay [1] has as its target T1, TANK, on the E. coli colony macroarray (human) (UniProt Q92844).
T1 sequence: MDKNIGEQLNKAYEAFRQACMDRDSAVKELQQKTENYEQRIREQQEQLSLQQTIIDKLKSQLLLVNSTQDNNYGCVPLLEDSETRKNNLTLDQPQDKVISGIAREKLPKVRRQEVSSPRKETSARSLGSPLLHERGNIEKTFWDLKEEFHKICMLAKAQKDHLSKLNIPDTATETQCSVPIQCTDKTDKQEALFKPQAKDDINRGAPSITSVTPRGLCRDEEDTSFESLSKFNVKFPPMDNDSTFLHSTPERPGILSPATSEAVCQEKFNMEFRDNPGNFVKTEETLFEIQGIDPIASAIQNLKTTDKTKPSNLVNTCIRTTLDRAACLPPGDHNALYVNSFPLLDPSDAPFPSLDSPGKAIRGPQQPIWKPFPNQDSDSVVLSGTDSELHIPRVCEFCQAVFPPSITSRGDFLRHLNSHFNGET
Put plainly: peptide or protein array; E. coli colony macroarrays (ImaGenes UniPex, more than 30,000 recombinant human proteins) probed with full-length GST-NEMO; data not shown; only the binder purified.

Assay [2] deals with Xpress-tagged NEMO (human) (UniProt Q9Y6K9). Put plainly: co-IP; Xpress-tagged NEMO and partner co-expressed in HEK-293T; anti-Xpress, protein A/G agarose; binding and washing with 0.5% NP-40 (20 mM Tris-HCl pH 7.5, 137 mM NaCl, 0.5 mM DTT, 10% glycerol, 2 mM EDTA), 4°C.
The target of a further assay is GST-NEMO (human) (UniProt Q9Y6K9). Put plainly: pull-down; GST or GST-NEMO immobilised; lysates of transiently transfected HEK-293T cells applied; washing, SDS-PAGE, immunoblot; only the target purified.
Assay [3] has as its target Xpress-tagged NEMO (human) (UniProt Q9Y6K9). Description: co-IP; as the other co-IPs (Xpress-tagged NEMO, anti-Xpress, HEK-293T lysate) but binding and washing with 0.1% NP-40; used for SAG.
Assay [4] has as its target NEMO, mammalian two-hybrid fusion (human) (UniProt Q9Y6K9). Description: two-hybrid; mammalian two-hybrid, CheckMate/Flexi system (Promega) in HEK-293T; pFN10A (activation domain) and pFN11A (binding domain); firefly/Renilla luciferase; partner/NEMO compared with partner/empty vector.

No constants are given. Whether binding was seen depends on the method and setting. For some assays here: In cells and extracts the contact can be indirect. Some binding calls cover weakened binding; strength is not graded here.

Take GST-NEMO (from UniProt Q9Y6K9 1-419): the binding entry in assay [1] is given as “binds”.

With “SAG (sensitive to apoptosis gene 1), expressed in HEK-293T (from UniProt Q9UBF6 1-113)”, the binding result in assay [2] is given as “no binding (condition: with 0.5% NP-40)”; with GST-NEMO (human), “binds”; in assay [3] it was “binds”.

For the substance “SAG, mammalian two-hybrid fusion (from UniProt Q9UBF6 1-113)”, the binding entry in assay [4] is on record as “binds”.

With “SYT1, mammalian two-hybrid fusion (from UniProt P21579 1-422)”, the binding result in assay [4] is listed as “binds”.

For the substance SYT1-FLAG (from UniProt P21579 1-422), the binding result (in assay [2]; with GST-NEMO (human)) was “binds” throughout.
